Results taken from US11207320B2, “Compositions and methods for cancer expressing PDE3A or SLFN12” (The Broad Institute, Inc., priority 2015, dated 2021).
Further values from the same series stand in other lists.

Tested on: 766 cancer cell lines
Assay: Large-scale cell-line viability measurements (766 cancer cell lines, 72 h, AUC)
Type: cell-based, human
Conditions: 72 hours
Experimental: Cell lines were treated for 72 hours with concentrations ranging from 66.4 μM-2 nM in 2-fold step dilutions.
To characterize cellular sensitivity to DNMDP further, 766 genomically characterized cancer cell lines were screened for DMNDP sensitivity at concentrations ranging from 66.4 μM to 2 nM in 2-fold dilution steps for 72 hours. From these cell lines, 22 cell lines were categorized as sensitive with a robust Z-score lower than −4, which represented multiple lineages including multiple melanoma cell lines, amongst others (Table 1).
The sensitivity of […] cancer cell lines (CCLs) was measured drawn from 23 different lineages to DNMDP. Each cell line was plated in its preferred media in white opaque 1536-plates at a density of 500 cells/well. After incubating overnight, DNMDP was added by acoustic transfer at 16 concentrations ranging from 66.4 μM-2 nM in 2-fold steps in duplicate (Labcyte Echo 555, Labcyte Inc., Sunnyvale, Calif.). After 72 hours treatment, cellular ATP levels were measured as a surrogate for viability (CELLTITERGLO®, Promega Corporation, Madison, Wis.) according to manufacturer's protocols using a ViewLux Microplate Imager (PerkinElmer, Waltham, Mass.) and normalized to background (media-only) and vehicle (DMSO)-treated control wells.
Concentration response curves were fit using nonlinear fits to 2- or 3-parameter sigmoid functions through all 16 concentrations with the low-concentration asymptote set to the DMSO-normalized value, and an optimal 8-point dose curve spanning the range of compound-sensitivity was identified. The area under the 8-point dose curve (AUC) was computed by numeric integration as a metric for sensitivity for further analysis. Similar sensitivity measurements have been obtained for a collection of 480 other compounds, enabling analyses that identify cell lines responding uniquely to DNMDP (see Broad Institute Cancer Therapeutics Response Portal, a dataset to identify comprehensively relationships between genetic and lineage features of human cancer cell lines and small-molecule sensitivities for complete list of compounds).

[1] = NOMO1 (HAEMATOPOIETIC AND LYMPHOID TISSUE)
[2] = NUDUL1 (HAEMATOPOIETIC AND LYMPHOID TISSUE)
[3] = OCIAML5 (HAEMATOPOIETIC AND LYMPHOID TISSUE)
[4] = OCILY3 (HAEMATOPOIETIC AND LYMPHOID TISSUE)
[5] = OCILY10 (HAEMATOPOIETIC AND LYMPHOID TISSUE)
[6] = P31FUJ (HAEMATOPOIETIC AND LYMPHOID TISSUE)
[7] = PEER (HAEMATOPOIETIC AND LYMPHOID TISSUE)
[8] = PL21 (HAEMATOPOIETIC AND LYMPHOID TISSUE)
[9] = REC1 (HAEMATOPOIETIC AND LYMPHOID TISSUE)
[10] = REH (HAEMATOPOIETIC AND LYMPHOID TISSUE)
[11] = RS411 (HAEMATOPOIETIC AND LYMPHOID TISSUE)

Question: For CCN(CC)c1ccc(C2=NNC(=O)CC2C)cc1[N+](=O)[O-] (stereo not drawn) [DNMDP, 6-(4-(diethylamino)-3-nitrophenyl)-5-methyl-4,5-dihydropyridazin-3(2H)-one], which “Robust Z-score” value (NCIH1666 (LUNG)) is on record?
Answer: −3.175

Question: What about the “DNMDP AUC” value (NCIH1693 (LUNG)) of the same compound?
Answer: 6.3603

Question: And the “Robust Z-score” value (NCIH1693 (LUNG))?
Answer: −0.288

Question: What about the “DNMDP AUC” value (NCIH1703 (LUNG)) of the same compound?
Answer: 6.5035

Question: What about the “Robust Z-score” value (NCIH1703 (LUNG)) of the same compound?
Answer: −0.1377

Question: What about the “DNMDP AUC” value (NCIH1734 (LUNG)) of the same compound?
Answer: 2.2179

Question: And the “Robust Z-score” value (NCIH1734 (LUNG))?
Answer: −4.636

Question: And the “DNMDP AUC” value (NCIH1869 (LUNG))?
Answer: 6.4177

Question: And the “Robust Z-score” value (NCIH1869 (LUNG))?
Answer: −0.2277

Question: And the “DNMDP AUC” value (NCIH1915 (LUNG))?
Answer: 5.0031

Question: And the “Robust Z-score” value (NCIH1915 (LUNG))?
Answer: −1.713

Question: What about the “DNMDP AUC” value (NCIH2081 (LUNG)) of the same compound?
Answer: 5.5811

Question: What about the “Robust Z-score” value (NCIH2081 (LUNG)) of the same compound?
Answer: −1.106

Question: What about the “DNMDP AUC” value (NCIH2106 (LUNG)) of the same compound?
Answer: 6.5249

Question: And the “Robust Z-score” value (NCIH2106 (LUNG))?
Answer: −0.1152

Question: And the “DNMDP AUC” value (NCIH2172 (LUNG))?
Answer: 5.4245

Question: What about the “Robust Z-score” value (NCIH2172 (LUNG)) of the same compound?
Answer: −1.27

Question: And the “DNMDP AUC” value (NCIH2228 (LUNG))?
Answer: 6.5304

Question: What about the “Robust Z-score” value (NCIH2228 (LUNG)) of the same compound?
Answer: −0.1094

Question: What about the “DNMDP AUC” value (NCIH2286 (LUNG)) of the same compound?
Answer: 4.7782

Question: And the “Robust Z-score” value (NCIH2286 (LUNG))?
Answer: −1.949

Question: And the “DNMDP AUC” value (NCIN87 (STOMACH))?
Answer: 6.24

Question: What about the “Robust Z-score” value (NCIN87 (STOMACH)) of the same compound?
Answer: −0.4142

Question: And the “DNMDP AUC” value (NH6 (AUTONOMIC GANGLIA))?
Answer: 6.4066

Question: And the “Robust Z-score” value (NH6 (AUTONOMIC GANGLIA))?
Answer: −0.2394

Question: What about the “DNMDP AUC” value [1] of the same compound?
Answer: 6.3925

Question: What about the “Robust Z-score” value [1] of the same compound?
Answer: −0.2542

Question: And the “DNMDP AUC” value [2]?
Answer: 6.2966

Question: What about the “Robust Z-score” value [2] of the same compound?
Answer: −0.3548

Question: And the “DNMDP AUC” value (OAW28 (OVARY))?
Answer: 6.2381

Question: What about the “Robust Z-score” value (OAW28 (OVARY)) of the same compound?
Answer: −0.4162

Question: And the “DNMDP AUC” value [3]?
Answer: 6.3062

Question: What about the “Robust Z-score” value [3] of the same compound?
Answer: −0.3448

Question: And the “DNMDP AUC” value [4]?
Answer: 6.4442

Question: What about the “Robust Z-score” value [4] of the same compound?
Answer: −0.1999

Question: And the “DNMDP AUC” value [5]?
Answer: 6.222

Question: And the “Robust Z-score” value [5]?
Answer: −0.4331

Question: What about the “DNMDP AUC” value (OCUM1 (STOMACH)) of the same compound?
Answer: 5.2843

Question: What about the “Robust Z-score” value (OCUM1 (STOMACH)) of the same compound?
Answer: −1.417

Question: And the “DNMDP AUC” value (ONS76 (CENTRAL NERVOUS SYSTEM))?
Answer: 6.4253

Question: And the “Robust Z-score” value (ONS76 (CENTRAL NERVOUS SYSTEM))?
Answer: −0.2197

Question: What about the “DNMDP AUC” value (OSRC2 (KIDNEY)) of the same compound?
Answer: 4.326

Question: What about the “Robust Z-score” value (OSRC2 (KIDNEY)) of the same compound?
Answer: −2.423

Question: And the “DNMDP AUC” value (OUMS23 (LARGE INTESTINE))?
Answer: 6.5015

Question: What about the “Robust Z-score” value (OUMS23 (LARGE INTESTINE)) of the same compound?
Answer: −0.1398

Question: And the “DNMDP AUC” value (OVMANA (OVARY))?
Answer: 6.3268

Question: What about the “Robust Z-score” value (OVMANA (OVARY)) of the same compound?
Answer: −0.3231

Question: And the “DNMDP AUC” value (OVTOKO (OVARY))?
Answer: 6.4718

Question: What about the “Robust Z-score” value (OVTOKO (OVARY)) of the same compound?
Answer: −0.1709

Question: What about the “DNMDP AUC” value [6] of the same compound?
Answer: 5.0106

Question: What about the “Robust Z-score” value [6] of the same compound?
Answer: −1.705

Question: And the “DNMDP AUC” value (PANC0327 (PANCREAS))?
Answer: 6.4856

Question: What about the “Robust Z-score” value (PANC0327 (PANCREAS)) of the same compound?
Answer: −0.1565

Question: And the “DNMDP AUC” value (PANC0504 (PANCREAS))?
Answer: 6.3894

Question: And the “Robust Z-score” value (PANC0504 (PANCREAS))?
Answer: −0.2574

Question: And the “DNMDP AUC” value (PATU8988S (PANCREAS))?
Answer: 6.479

Question: And the “Robust Z-score” value (PATU8988S (PANCREAS))?
Answer: −0.1634

Question: What about the “DNMDP AUC” value [7] of the same compound?
Answer: 5.4754

Question: What about the “Robust Z-score” value [7] of the same compound?
Answer: −1.217

Question: What about the “DNMDP AUC” value [8] of the same compound?
Answer: 6.4754

Question: What about the “Robust Z-score” value [8] of the same compound?
Answer: −0.1672

Question: What about the “DNMDP AUC” value (RD (SOFT TISSUE)) of the same compound?
Answer: 6.4567

Question: What about the “Robust Z-score” value (RD (SOFT TISSUE)) of the same compound?
Answer: −0.1868

Question: And the “DNMDP AUC” value [9]?
Answer: 6.5051

Question: What about the “Robust Z-score” value [9] of the same compound?
Answer: −0.136

Question: And the “DNMDP AUC” value [10]?
Answer: 6.3759

Question: What about the “Robust Z-score” value [10] of the same compound?
Answer: −0.2716

Question: What about the “DNMDP AUC” value (RERFLCAD2 (LUNG)) of the same compound?
Answer: 6.2783

Question: What about the “Robust Z-score” value (RERFLCAD2 (LUNG)) of the same compound?
Answer: −0.374

Question: What about the “DNMDP AUC” value (RERFLCAI (LUNG)) of the same compound?
Answer: 6.4571

Question: And the “Robust Z-score” value (RERFLCAI (LUNG))?
Answer: −0.1864

Question: What about the “DNMDP AUC” value (RH18 (SOFT TISSUE)) of the same compound?
Answer: 5.6283

Question: What about the “Robust Z-score” value (RH18 (SOFT TISSUE)) of the same compound?
Answer: −1.056

Question: What about the “DNMDP AUC” value (RH30 (SOFT TISSUE)) of the same compound?
Answer: 6.3841

Question: And the “Robust Z-score” value (RH30 (SOFT TISSUE))?
Answer: −0.263

Question: What about the “DNMDP AUC” value (RKO (LARGE INTESTINE)) of the same compound?
Answer: 6.4316

Question: What about the “Robust Z-score” value (RKO (LARGE INTESTINE)) of the same compound?
Answer: −0.2131

Question: And the “DNMDP AUC” value (RMGI (OVARY))?
Answer: 6.3019

Question: And the “Robust Z-score” value (RMGI (OVARY))?
Answer: −0.3493

Question: What about the “DNMDP AUC” value (RMUGS (OVARY)) of the same compound?
Answer: 6.52

Question: And the “Robust Z-score” value (RMUGS (OVARY))?
Answer: −0.1203

Question: And the “DNMDP AUC” value [11]?
Answer: 6.2689

Question: And the “Robust Z-score” value [11]?
Answer: −0.3839

Question: What about the “DNMDP AUC” value (RT4 (URINARY TRACT)) of the same compound?
Answer: 6.2742
